# This is one part of the list. At the low end of the ranking, values are background and their order means little.
# Target: T1, GST-Rok (full length) (UniProt O34857)
# T1 sequence: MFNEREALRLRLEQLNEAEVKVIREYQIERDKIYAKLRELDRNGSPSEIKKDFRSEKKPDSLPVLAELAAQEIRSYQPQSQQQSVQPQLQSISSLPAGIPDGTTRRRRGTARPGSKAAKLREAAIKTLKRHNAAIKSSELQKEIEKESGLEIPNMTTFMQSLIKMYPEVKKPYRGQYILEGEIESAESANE
# Experiment: protein binding microarray;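 note: rank score from −0.5 (least bound) to 0.5 (best bound)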
# Conditions: Rok is a gene silencer of Bacillus subtilis; high values mean tight binding; most listed sequences are background and not binding sites; double strand, one strand shown
row,Sequence,binding signal [E-score]
1,CCATGACG,-0.162
2,CGAGGGAC,-0.174
3,TCCCAGCA,-0.184
4,CGTCTATC,-0.119
5,ATTTGTCG,0.155
6,CGAGCTGA,-0.121
7,AAGGACGG,-0.151
8,AGTGGACG,-0.211
9,CCGTATGA,0.00293
10,TCTATTCA,0.0926
11,CTTTCTAC,0.444
12,AGCTGGAC,-0.285
13,ACATCTGC,0.16
14,CCAAGGTA,0.0533
15,ATGGGAGC,-0.257
16,GACAGATA,0.176
17,CAAAATGA,0.153
18,AGCTGCTG,-0.167
19,ACTGCCGA,-0.198
20,AATATCAA,0.29
21,CCAGTAGG,0.103
22,CCACTCGA,-0.0428
23,AGCCTCTA,0.0465
24,CTAGGGGC,-0.229
25,CCCATCCC,-0.266

row,Sequence,binding signal [E-score]
1,CACGCATG,-0.148
2,AAAGAAAC,-0.0495
3,GTCCCTGA,-0.197
4,CCTACAGA,-0.0148
5,TCGCACCA,-0.107
6,TAGTCATA,0.154
7,CTCCTCGA,-0.0863
8,CACAGCGA,-0.108
9,ATCGGCAA,-0.159
10,CCGCCCCC,-0.354
11,CACCTCGC,-0.177
12,CAACTGCG,-0.142
13,CGGTTTCA,-0.0506
14,CCTGGTCA,-0.133
15,GGATGGCC,-0.338
16,ACGTGCCA,0.0751
17,ATGACGGA,0.185
18,TCGTTAGA,-0.0607
19,ACGCAGAA,-0.0649
20,TTATGGAA,0.135
21,CCCTTGAC,-0.291
22,AGTCGTGC,0.0818
23,GAGACACA,-0.151
24,TGGATCAA,-0.0175
25,TACCGGAA,0.0111

row,Sequence,binding signal [E-score]
1,CTAGCTGA,0.0781
2,CGCAGCTC,-0.257
3,AGCGTCAA,-0.0513
4,CGGGGTGA,-0.131
5,GCTCTTAC,-0.0751
6,CTGGCGCA,-0.124
7,GATATGCA,0.185
8,AAGTAATC,0.0927
9,TATCATGA,0.173
10,GCGGCGTA,-0.0082
11,CTCGGTGA,0.0549
12,AGCCAAAT,0.0925
13,ACTATTCA,0.196
14,AAATACGT,0.326
15,GGAAGTAC,-0.1
16,TAATATAA,0.236
17,AAATAGGG,-0.165
18,ATCTCGCC,0.0829
19,AGGTCTTA,-0.26
20,AAATATTC,0.251
21,ACGTCCGG,-0.0632
22,CCGGTATC,0.0923
23,AAACCGCA,-0.232
24,GGGCAAAA,-0.00831
25,CCGCTTGA,-0.0486

row,Sequence,binding signal [E-score]
1,ATCCAATG,0.11
2,CGTCGCAA,-0.166
3,GAGCCATC,-0.0688
4,TATTCTGA,0.119
5,ACTCTCGC,-0.085
6,AAGACTAA,0.108
7,CGTAGACA,-0.198
8,AGCCGACG,-0.232
9,CCGCATTA,0.0272
10,AGAAATTG,0.0823
11,TAATATGA,0.221
12,AGCTCTGA,-0.125
13,ATTATTAC,0.382
14,CACACGCC,-0.206
15,CTAGGGCC,-0.206
16,TATTGGCA,0.157
17,GGGACTTA,0.127
18,AGACTTGG,-0.114
19,AGCACGTA,-0.0375
20,CTAGTCAG,0.00365
21,CAGTCGAC,-0.19
22,GGGGCAGA,-0.356
23,CCCTCGGA,-0.253
24,ACGCCAGT,-0.219
25,CCGTGCTA,-0.0122

row,Sequence,binding signal [E-score]
1,AACTGTGA,0.204
2,CTTCACAA,0.035
3,CAAGAGCG,-0.0807
4,GAAGGTCC,-0.376
5,AACCTAGG,0.0548
6,ACGGGAAC,-0.208
7,ATAAAGAA,-0.0956
8,GAATTATA,0.326
9,CCACCGAG,-0.162
10,TCCGCGCA,-0.115
11,ACCGAACC,-0.111
12,AGTCCTCA,0.012
13,GGACACAA,-0.24
14,CATGTGCC,0.0241
15,CGCCACAA,-0.0999
16,GCTTGAAC,-0.0383
17,GCCTAGCC,-0.107
18,ACAGCTTA,-0.00768
19,CCCCGACC,-0.338
20,AATTCGGG,0.00611
21,AGGTGGTC,-0.35
22,ACCGGTTC,-0.188
23,ACTCTAAA,-0.0841
24,CGTGTTAG,-0.029
25,GTCAAAAC,0.00409

row,Sequence,binding signal [E-score]
1,ATTAGCCC,-0.135
2,GAGGGATA,-0.166
3,CACCGGTG,-0.261
4,GATTCTCC,0.234
5,ATCCCAGG,0.00826
6,ACCCGATA,0.194
7,CAGGTATG,0.179
8,GTATCGTA,0.295
9,CCAAGGAA,-0.0887
10,GCAGGATA,-0.0229
11,ACACCGCC,-0.226
12,GCCGATAA,0.039
13,GCAGCCCC,-0.436
14,CGTCCTGC,-0.293
15,GGACATCA,-0.293
16,AATTTGAG,0.0604
17,CCACATTA,0.125
18,ACATTCGC,0.0185
19,AATGACCA,-0.151
20,AACAGCTC,0.0909
21,ATCCGGGC,-0.201
22,CGCGGTAA,0.147
23,AGGTCGAC,0.1
24,GTATTAGA,0.22
25,CGAGACAC,-0.204

row,Sequence,binding signal [E-score]
1,CGGTGCCC,-0.314
2,ACTAAAGC,0.0469
3,ACTCTTAT,0.0525
4,CTAATCCC,-0.207
5,CCGCATGC,-0.0458
6,CGCAAGAA,-0.0375
7,CGGGCGAG,-0.29
8,ATCTGGCG,-0.253
9,GGCCCTAC,-0.323
10,CTGCCACC,-0.282
11,TGCAAAAA,0.0792
12,CGGAATAG,0.163
13,GGACTGGA,-0.124
14,AGCGAGCC,-0.201
15,CCCTAACC,-0.406
16,CAGATATG,0.125
17,TGCAACCA,0.0881
18,ACCGGTTG,-0.0533
19,CCTGGGCG,-0.311
20,ATTAGCTC,0.135
21,CCACTCCA,-0.194
22,GACGGGCA,-0.159
